Measured values reported in the supplement of paper PMC3334620.
In all, about 33,000 sequences were measured (“E-score (-0.5 to 0.5)”: median about -0.054, highest 2% from about 0.35 on). Some of the results follow.

target: T1, Stb5 (UniProt P38699); test: PBM E-score (8-mer binding enrichment) (E-score (-0.5 to 0.5)); higher = stronger / more preferred TF binding; most listed sequences are background and not binding sites; settings: protein concentration: 200 nM; construct: GST-full length
T1 sequence: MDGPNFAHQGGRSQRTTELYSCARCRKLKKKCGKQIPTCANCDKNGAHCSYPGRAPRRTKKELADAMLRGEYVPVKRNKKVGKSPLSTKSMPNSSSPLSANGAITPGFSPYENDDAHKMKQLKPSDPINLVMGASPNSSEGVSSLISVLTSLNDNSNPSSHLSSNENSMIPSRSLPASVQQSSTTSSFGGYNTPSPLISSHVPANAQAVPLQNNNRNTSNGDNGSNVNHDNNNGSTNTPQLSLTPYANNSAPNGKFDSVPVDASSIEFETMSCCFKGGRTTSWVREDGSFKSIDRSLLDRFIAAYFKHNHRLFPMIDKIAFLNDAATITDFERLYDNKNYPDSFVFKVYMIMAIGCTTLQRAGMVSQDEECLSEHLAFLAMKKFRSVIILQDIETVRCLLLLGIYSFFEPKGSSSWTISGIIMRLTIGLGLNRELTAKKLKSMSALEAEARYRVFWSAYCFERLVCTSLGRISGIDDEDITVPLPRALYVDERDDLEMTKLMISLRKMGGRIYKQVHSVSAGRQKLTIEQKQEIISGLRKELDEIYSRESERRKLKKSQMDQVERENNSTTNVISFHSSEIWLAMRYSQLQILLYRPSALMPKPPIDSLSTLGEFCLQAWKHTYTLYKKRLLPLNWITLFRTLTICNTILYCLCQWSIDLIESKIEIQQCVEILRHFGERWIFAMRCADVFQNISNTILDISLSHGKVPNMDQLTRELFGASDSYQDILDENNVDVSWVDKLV
How it was run: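 Universal all-10-mer Agilent arrays, fresh or stripped once, were converted to double-stranded form by primer extension. GST-tagged yeast transcription factors from PURExpress in vitro transcription/translation, full-length or DNA-binding domain only, were applied at about 100-200 nM and detected with fluorescent anti-GST. After masliner normalisation, the Universal PBM Analysis Suite scored each ungapped eight-base word together with its reverse complement by E-score.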

Sequence | PBM E-score
CAAGCTGG | -0.259
GCGGGAAC | 0.225
GATGGTGA | -0.00517
CCCACCAC | -0.182
GACTGCGA | -0.0122
AACCTCCA | -0.208
CACGAACG | 0.0355
CGCTGGAG | -0.0255
CTAACGTC | 0.00376
GAGTGACA | -0.0475
GAGGACTA | -0.0604
ATCTACCA | -0.151
ACCGCCTG | 0.25
ATGCCTAA | -0.163
AGTCTTGA | -0.213
AACTGGAC | -0.0509
ACTGGGGA | -0.161
ATACGCAA | -0.165
CGATTCAC | 0.0199
AAGAAGCG | 0.027
AGGACACG | 0.0109
AATTATCA | 0.127

Sequence | PBM E-score
AATAAGCA | -0.0559
GAACGAGC | -0.183
AGGGTCGC | -0.167
CCGGGCTC | 0.166
ACGCCAAG | -0.28
GCTGGGCA | -0.226
TAGGCAGA | 0.0374
AGCGTGAA | -0.178
AGGTCCTC | -0.0933
ATTTACGA | 0.0377
GAGTGATC | -0.0228
ATCTGACC | 0.118
AAGACCGC | 0.443
ACCAACTA | -0.0283
TCCGGAGA | 0.185
CATCATCG | -0.0164
CCACCTAG | -0.0958
CTGGATTA | 0.0677
TCGCTGCA | -0.00396
TTACACAA | 0.0604
CTGTAGAC | -0.0544
CGCGCGCG | 0.213

Sequence | PBM E-score
ATACTCGA | -0.172
GAGCGCGA | -0.0254
CACGGAAG | 0.104
ATGACTTA | -0.243
AACGTAGC | -0.195
GCTGCTCC | -0.145
CGCTGTAC | 0.0659
ACCCTTCT | -0.247
TCCGCTAA | 0.248
CGCCGTCA | 0.33
ACATGGGC | -0.129
TCTCAAGA | -0.133
AAGAGTAC | -0.12
CCGCGCCC | 0.268
GGCCCGGA | 0.21
AATAGAGC | -0.0257
GTCTTGGA | -0.254
CGTATGGC | -0.145
GCTCCCGA | -0.0118
CGAGGTCA | -0.0286
CAAAATCA | -0.117
ATAGTACA | -0.13

Sequence | PBM E-score
CGGTGTAG | 0.323
ACTTGCGC | 0.105
CCATTCTC | -0.126
TAAATCTA | -0.0639
AGGGAAGG | -0.103
AGCTGCGC | -0.0182
AAGCATCA | -0.187
ACCACTTC | 0.0599
AACGCAAT | -0.0265
ATGAACTA | -0.151
GATGGTGC | -0.0647
AGGTGCTA | 0.0872
CCCAGCCA | -0.265
CCTCGGTA | 0.223
ATGTCTAG | -0.119
ATACGTGA | -0.0516
CGCGTTAG | -0.0182
ACCTATGC | 0.0175
ACGTCTTC | -0.132
CCCGACAG | 0.305
ATTACGAA | 0.0233
ACCCCAGC | -0.0864

Sequence | PBM E-score
ACGCAAAC | -0.206
TATTTTAA | 0.0873
CCCATCAG | -0.157
CGGCATAG | 0.0895
CCCGTTAG | 0.235
AGGCCGGC | 0.265
ATATGAAT | 0.0646
AGCTGCAC | -0.163
GACTCCAC | -0.14
ACTACCCT | -0.276
ACCCTTAA | -0.0774
CTAAGAAA | -0.223
TCGGGCCA | 0.0792
AACTCACA | -0.235
CCAACCAC | -0.12
ACTCTTTG | -0.24
GGGCGGGA | 0.277
AGCGTTTG | -0.253
CGGAGTGC | 0.198
ACAGGGGT | 0.00253
AGCAGCAA | -0.174
CGAGTACA | -0.158
